# Some of the results follow.
# B1: DC-SIGN (Canis lupus), XP_853402 (protein)
# chain: AGLCRPCPWKWELFQESCYFFSQTQNTWKESISACQNLRAQLVIINSTEEQKFLKSWNTRNNQRTWIGLSDHHNEGSWKWVDNTPLQLSFWKEGEPNNHGDEDCVELYSDGWNDNRCSTENFWICKKPSSPCPGPGLNDIFEAQKIEWHE
# Columns and labels:
# Assay in all cases: glycan array binding signal (z-score within array); higher = stronger binding
# Conditions in all cases: glycan notation: IUPAC condensed, linker removed
# Gal(a1-2)Gal = target: Gal(a1-2)Gal
# Outline: (§1)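 Glycan array data came from 3228 arrays in the Consortium for Functional Glycomics database, and only arrays with an available protein sequence were kept. Glycan names were put into IUPAC-condensed notation, and columns mapping to the same glycan were averaged. The binding signal is a within-array Z-score, averaged across arrays of one protein sequence run at different concentrations or buffers and across linkers. A negative Z-score can be read as non-binding.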
# Gal(a1-3)Gal = target: Gal(a1-3)Gal
# Outline: as §1
# Gal(a1-3)Gal(b1-3)GlcNAc = target: Gal(a1-3)Gal(b1-3)GlcNAc
# Outline: as §1
# Gal(a1-3)Gal(b1-4)Glc = target: Gal(a1-3)Gal(b1-4)Glc
# Outline: as §1
# Gal(a1-3)Gal(b1-4)GlcNAc = target: Gal(a1-3)Gal(b1-4)GlcNAc
# Outline: as §1
# [1] = target: Gal(a1-3)Gal(b1-4)[Fuc(a1-3)]GlcNAc
# Outline: as §1
# [2] = target: Gal(a1-3)Gal(b1-4)[Fuc(a1-3)]GlcNAc(b1-2)Man(a1-3)[Gal(a1-3)Gal(b1-4)[Fuc(a1-3)]GlcNAc(b1-2)Man(a1-6)]Man(b1-4)GlcNAc(b1-4)GlcNAc
# Outline: as §1
# Gal(a1-3)GalNAc = target: Gal(a1-3)GalNAc
# Outline: as §1
# [3] = target: Gal(a1-3)[Gal(a1-4)]Gal(b1-4)GlcNAc
# Outline: as §1
# Gal(a1-4)Gal(b1-4)Glc = target: Gal(a1-4)Gal(b1-4)Glc
# Outline: as §1
# Gal(a1-4)Gal(b1-4)GlcNAc = target: Gal(a1-4)Gal(b1-4)GlcNAc
# Outline: as §1
# [4] = target: Gal(a1-4)Gal(b1-4)GlcNAc(b1-3)Gal(b1-4)Glc
# Outline: as §1
# Gal(a1-4)GlcNAc = target: Gal(a1-4)GlcNAc
# Outline: as §1
# Gal(a1-6)Glc = target: Gal(a1-6)Glc
# Outline: as §1
# Gal(b1-2)Gal = target: Gal(b1-2)Gal
# Outline: as §1
# Gal(b1-3)Gal = target: Gal(b1-3)Gal
# Outline: as §1
# Gal(b1-3)Gal(b1-4)GlcNAc = target: Gal(b1-3)Gal(b1-4)GlcNAc
# Outline: as §1
# [5] = target: Gal(b1-3)Gal(b1-4)GlcNAc(b1-2)Man(a1-3)[Gal(b1-3)Gal(b1-4)GlcNAc(b1-2)Man(a1-6)]Man(b1-4)GlcNAc(b1-4)GlcNAc
# Outline: as §1
# Gal(b1-3)GalNAc = target: Gal(b1-3)GalNAc
# Outline: as §1
# [6] = target: Gal(b1-3)GalNAc(a1-3)[Fuc(a1-2)]Gal(b1-4)Glc
# Outline: as §1
# [7] = target: Gal(b1-3)GalNAc(a1-3)[Fuc(a1-2)]Gal(b1-4)GlcNAc
# Outline: as §1
# [8] = target: Gal(b1-3)GalNAc(b1-3)Gal(a1-4)Gal(b1-4)Glc
# Outline: as §1
# [9] = target: Gal(b1-3)GalNAc(b1-4)Gal(b1-4)Glc
# Outline: as §1
# [10] = target: Gal(b1-3)GalNAc(b1-4)[Neu5Ac(a2-3)]Gal(b1-4)Glc
# Outline: as §1
# Gal(b1-3)GlcNAc = target: Gal(b1-3)GlcNAc
# Outline: as §1
# [11] = target: Gal(b1-3)GlcNAc(b1-2)Man(a1-3)[Gal(b1-3)GlcNAc(b1-2)Man(a1-6)]Man(b1-4)GlcNAc(b1-4)GlcNAc
# Outline: as §1
# [12] = target: Gal(b1-3)GlcNAc(b1-2)Man(a1-3)[Gal(b1-3)GlcNAc(b1-2)Man(a1-6)]Man(b1-4)GlcNAc(b1-4)[Fuc(a1-6)]GlcNAc
# Outline: as §1
# [13] = target: Gal(b1-3)GlcNAc(b1-3)Gal(b1-3)GlcNAc
# Outline: as §1
# [14] = target: Gal(b1-3)GlcNAc(b1-3)Gal(b1-4)Glc
# Outline: as §1
# [15] = target: Gal(b1-3)GlcNAc(b1-3)Gal(b1-4)GlcNAc
# Outline: as §1
# [16] = target: Gal(b1-3)[Fuc(a1-4)]GlcNAc
# Outline: as §1
# [17] = target: Gal(b1-3)[Fuc(a1-4)]GlcNAc(b1-2)Man(a1-3)[Gal(b1-3)[Fuc(a1-4)]GlcNAc(b1-2)Man(a1-6)]Man(b1-4)GlcNAc(b1-4)GlcNAc
# Outline: as §1
# [18] = target: Gal(b1-3)[Fuc(a1-4)]GlcNAc(b1-2)Man(a1-3)[Gal(b1-3)[Fuc(a1-4)]GlcNAc(b1-2)Man(a1-6)]Man(b1-4)GlcNAc(b1-4)[Fuc(a1-6)]GlcNAc
# Outline: as §1
# [19] = target: Gal(b1-3)[Fuc(a1-4)]GlcNAc(b1-3)Gal(b1-3)[Fuc(a1-4)]GlcNAc
# Outline: as §1
# [20] = target: Gal(b1-3)[Fuc(a1-4)]GlcNAc(b1-3)Gal(b1-4)GlcNAc
# Outline: as §1
# [21] = target: Gal(b1-3)[Fuc(a1-4)]GlcNAc(b1-3)Gal(b1-4)[Fuc(a1-3)]GlcNAc
# Outline: as §1
# [22] = target: Gal(b1-3)[GlcNAc(b1-6)]GalNAc
# Outline: as §1
# [23] = target: Gal(b1-3)[Neu5Ac(a2-6)]GalNAc
# Outline: as §1
# [24] = target: Gal(b1-3)[Neu5Ac(a2-6)]GlcNAc(b1-6)Gal(b1-4)Glc
# Outline: as §1
# [25] = target: Gal(b1-3)[Neu5Ac(b2-6)]GalNAc
# Outline: as §1
# [26] = target: Gal(b1-4)GalNAc(a1-3)[Fuc(a1-2)]Gal(b1-4)GlcNAc
# Outline: as §1
# [27] = target: Gal(b1-4)GalNAc(b1-3)[Fuc(a1-2)]Gal(b1-4)GlcNAc
# Outline: as §1
# Gal(b1-4)Glc = target: Gal(b1-4)Glc
# Outline: as §1
# Gal(b1-4)Glc6S = target: Gal(b1-4)Glc6S
# Outline: as §1
# Gal(b1-4)GlcNAc = target: Gal(b1-4)GlcNAc
# Outline: as §1
binder,measurement,setting,value
B1,glycan array binding signal (z-score),Gal(a1-2)Gal,-0.067
same,glycan array binding signal (z-score),Gal(a1-3)Gal,-0.079
same,glycan array binding signal (z-score),Gal(a1-3)Gal(b1-3)GlcNAc,-0.29
same,glycan array binding signal (z-score),Gal(a1-3)Gal(b1-4)Glc,-0.285
same,glycan array binding signal (z-score),Gal(a1-3)Gal(b1-4)GlcNAc,-0.208
same,glycan array binding signal (z-score),[1],-0.226
same,glycan array binding signal (z-score),[2],-0.154
same,glycan array binding signal (z-score),Gal(a1-3)GalNAc,0.129
same,glycan array binding signal (z-score),[3],-0.15
same,glycan array binding signal (z-score),Gal(a1-4)Gal(b1-4)Glc,-0.302
same,glycan array binding signal (z-score),Gal(a1-4)Gal(b1-4)GlcNAc,-0.198
same,glycan array binding signal (z-score),[4],-0.285
same,glycan array binding signal (z-score),Gal(a1-4)GlcNAc,-0.08
same,glycan array binding signal (z-score),Gal(a1-6)Glc,-0.315
same,glycan array binding signal (z-score),Gal(b1-2)Gal,-0.033
same,glycan array binding signal (z-score),Gal(b1-3)Gal,-0.173
same,glycan array binding signal (z-score),Gal(b1-3)Gal(b1-4)GlcNAc,-0.309
same,glycan array binding signal (z-score),[5],-0.295
same,glycan array binding signal (z-score),Gal(b1-3)GalNAc,-0.196
same,glycan array binding signal (z-score),[6],-0.225
same,glycan array binding signal (z-score),[7],-0.239
same,glycan array binding signal (z-score),[8],-0.115
same,glycan array binding signal (z-score),[9],-0.216
same,glycan array binding signal (z-score),[10],-0.255
same,glycan array binding signal (z-score),Gal(b1-3)GlcNAc,-0.104
same,glycan array binding signal (z-score),[11],-0.111
same,glycan array binding signal (z-score),[12],0.117
same,glycan array binding signal (z-score),[13],-0.202
same,glycan array binding signal (z-score),[14],-0.172
same,glycan array binding signal (z-score),[15],-0.331
same,glycan array binding signal (z-score),[16],-0.153
same,glycan array binding signal (z-score),[17],0.754
same,glycan array binding signal (z-score),[18],5.73
same,glycan array binding signal (z-score),[19],-0.113
same,glycan array binding signal (z-score),[20],-0.293
same,glycan array binding signal (z-score),[21],0.143
same,glycan array binding signal (z-score),[22],-0.212
same,glycan array binding signal (z-score),[23],-0.216
same,glycan array binding signal (z-score),[24],-0.196
same,glycan array binding signal (z-score),[25],-0.169
same,glycan array binding signal (z-score),[26],-0.255
same,glycan array binding signal (z-score),[27],-0.176
same,glycan array binding signal (z-score),Gal(b1-4)Glc,-0.159
same,glycan array binding signal (z-score),Gal(b1-4)Glc6S,-0.171
same,glycan array binding signal (z-score),Gal(b1-4)GlcNAc,-0.269

# From the supplement of paper PMC8728848
